Assay results taken from PubChem BioAssay AID686978 (National Center for Advancing Translational Sciences (NCATS), 2013).
In all, about 420,000 compounds went through this assay and about 64,000 (15%) were called active. The shares of active, inactive and inconclusive entries below differ from those in the screen. The call rests on the fitted dose curve; in most records, active means well fitted inhibition curve with a large enough effect; inconclusive means small, poorly fitted or top-dose-only effect; inactive means flat fitted curve, though single readings scatter. Potencies of inconclusive entries are left out as doubtful fits.

Experiment: qHTS for Inhibitors of human tyrosyl-DNA phosphodiesterase 1 (TDP1): qHTS in cells in absence of CPT; further: nearly all actives have a fitted effect of over 55% in size
Details: DT40 Tdp1-/- hTDP1 cells, no CPT, ATP luminescence, 48 h; activity change, negative = growth inhibition: at 46.2 µM (top of the series) unless noted
In short: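 Cells were dispensed at 400 per well, compounds added by pin tool, plates incubated ≥48 hr at 37 °C, then CellTiter-Glo added for 30 min at room temperature before luminescence reading. Line: DT40 Tdp1-/- complemented with hTDP1; camptothecin omitted.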
On the % scale 0 is the no-effect control and ±100 the full control effect; potency means the concentration at half of the fitted maximal effect; tags describe the fitted curve by direction and shape.

SMILES | Potency | activity change, negative = growth inhibition
COc1ccc(C(CNc2ccc(S(=O)(=O)N3CCN(C)CC3)cc2[N+](=O)[O-])N(C)C)cc1 (configuration not stated) | active: 20.6 µM | –
Cc1nn(-c2ccccc2)c2sc(C(=O)N(Cc3ccco3)C(C)C(=O)NC(C)(C)C)cc12 (configuration not stated) | active: 14.6 µM | –
CC(C)Cc1nnc(NC(=O)CCC(=O)NC2CC2)s1 | – | inactive: 9.57%
CCOC(=O)c1ccc(NC(=O)CSc2nc(-c3ccc(OC)cc3)cc(C(F)(F)F)c2C#N)cc1 | inconclusive [inhibitor, partial curve] | –
CCOC(=O)c1csc(NC(=O)CSc2nnnn2-c2ccc(OC)c(OC)c2)n1 | inconclusive [inhibitor, partial curve] | –
CCOC(=O)N1CCN(C(=O)c2ccc(OC)c(S(=O)(=O)N3CCOCC3)c2)CC1 | – | inactive: 0.874%
COCCNC(=O)C(c1ccc(Cl)cc1)N(CCOC)C(=O)CCC(=O)Nc1ccccn1 (configuration not stated) | – | inactive: -4.19%
CCn1cc2nc(SCC(=O)Nc3ccc(OC)c(Cl)c3)n(Cc3ccc(OC)cc3)c(=O)c2n1 | – | inactive: -23.5%
Cn1cnc([N+](=O)[O-])c1Cl | inconclusive [inhibitor, single point] | –
Cc1ccc(C)c(OCCC(=O)OCC(=O)NCc2ccccc2)c1 | – | inconclusive: -32% [inhibitor]
Cc1ccc(CC(=O)CCc2ccccc2)cc1 | – | inactive: -8.52%
CCOC(=O)C1C(=O)C=C(/C=C/c2ccccc2)CC1c1ccc(Cl)cc1 (configuration not stated) | inconclusive [inhibitor, single point] | –
Cc1ccc(Nc2ccc3cc(S(=O)(=O)N4CCCCC4)ccc3n2)cc1F | inconclusive [inhibitor, single point] | –
COc1ccc(C)cc1NC(=O)Cn1c(=O)oc2cc(S(=O)(=O)N3CCCCC3)ccc21 | active: 14.6 µM | –
O=C(NCCCc1ccccc1)C(=O)NCC1OCCN1S(=O)(=O)c1cc(F)ccc1F (configuration not stated) | inconclusive [inhibitor, single point] | –
O=C(O)/C=C/c1cn(-c2ccccc2)nc1-c1cc2ccccc2oc1=O | – | inactive: 17%
COc1cc(C)c(NC(=O)COc2ccc3c(c2)OCO3)cc1C | inconclusive [inhibitor, partial curve] | –
COc1cccc(CNC(=O)c2cccc(NC(=O)CC3SC(N4CCCCC4)=NC3=O)c2)c1 (configuration not stated) | inconclusive [inhibitor, single point] | –
Cc1ccc(C(=O)N=c2sccn2C)cc1S(=O)(=O)N1CCOCC1 | inconclusive [inhibitor, single point] | –
COc1ccc(N(CC(=O)N2CCN(c3ccccc3)CC2)S(=O)(=O)c2c(C)nn(C)c2C)cc1 | inconclusive [inhibitor, single point] | –
CC(=O)Nc1ccc(S(=O)(=O)NCCC(=O)OCC(=O)N2CCN(C(=O)c3ccco3)CC2)cc1 | – | inactive: -0.826%
Cc1nc2cc(NC(=O)CSc3nc4c(C)cccc4cc3C#N)ccc2s1 | – | inactive: -16.2%
O=C(Cc1ccccc1)N(Cc1cccnc1)c1nc2c(Cl)cccc2s1 | inconclusive [inhibitor, single point] | –
O=C(CSc1nnc(-c2ccco2)o1)NC1CCCCCC1 | – | inactive: -8.73%

SMILES | Potency | activity change, negative = growth inhibition
COc1ccc(OC)c(C2C(C(=O)Nc3nc4ccccc4s3)=C(C)NC3=C2C(=O)CCC3)c1 (configuration not stated) | inconclusive [inhibitor, single point] | –
Cc1ccc(S(=O)(=O)N2CCC[C@H]2C(=O)NC2CCCCC2)cc1 | inconclusive [inhibitor, single point] | –
CC1(C)Cc2nc3oc4c(=O)n(CC(=O)Nc5cccc(Cl)c5)cnc4c3cc2CO1 | inconclusive [inhibitor, partial curve] | –
COc1ccc(Nc2nccc(-c3ccc(C#N)cc3)n2)cc1 | inconclusive [inhibitor, single point] | –
CC(=O)c1ccc(NC(=O)c2cn(-c3ccccc3)nc2-c2ccc(Br)cc2)cc1 | inconclusive [inhibitor, single point] | –
CCOC(=O)c1cn(CC)c2cc(F)c(F)cc2c1=O | – | inactive: -3.3%
COC(=O)c1sccc1-n1cccc1C(=O)C(=O)N1CC(C)OC(C)C1 (configuration not stated) | – | inactive: -20.2%
COC(CNC(=O)CCc1c(C)nc2c(-c3ccc(F)cc3)c(C)nn2c1C)OC | inconclusive [inhibitor, partial curve] | –
Cc1ccc(F)cc1NC(=O)c1sc2ncn(CC(=O)N3CCN(c4ccccn4)CC3)c(=O)c2c1C | inconclusive [inhibitor, partial curve, poor fit] | –
O=C(CCC1CCCC1)N1CCc2c([nH]c3ccccc23)C1c1ccc(F)cc1 (configuration not stated) | inconclusive [inhibitor, single point] | –
Cc1ccccc1-c1nc(NCCN2CCOCC2)c2ccccc2n1 | – | inactive: -22.4%
CC1CCCN(S(=O)(=O)c2ccc(C(=O)Nc3nnc(-c4ccccn4)o3)cc2)C1 (configuration not stated) | active: 20.6 µM | –
Cc1ccc2c(c1)N(C(C)C(=O)NCc1cccs1)C(=O)CO2 (configuration not stated) | – | inactive: -15.2%
CSCC[C@H](NC(=O)OC(C)(C)C)C(=O)N/N=C/c1cccc2cccnc12 | active: 20.6 µM | –
COc1ccccc1N1CCN(C2CCCN(C(=O)Cn3cccn3)C2)CC1 (configuration not stated) | – | inactive: 4.82%
Cc1cccc2sc(N(CCCN(C)C)C(=O)c3nc4ccccc4s3)nc12 | active: 13 µM | –
Cc1ccc(NC(=O)C(=O)NCCCN2CCOCC2)c(C)c1 | – | inactive: -0.556%
Nc1nc(=S)c2snnc2[nH]1 | active: 15.8 µM | –
CCCOc1ccc([N+](=O)[O-])cc1C1NC(=S)NC(c2ccccc2)=C1C(=O)OCC (configuration not stated) | active: 20.6 µM | –
CCCCN(C=O)c1c(CC)nc2ccc(C(=O)NCc3ccccc3OC)cn12 | inconclusive [inhibitor, single point] | –
Cc1cccc(N/N=C(\C#N)S(=O)(=O)C(C)(C)C)c1 | inconclusive [inhibitor, partial curve] | –
CCc1nnc(SC(CC)C(=O)Nc2ccc(OC)c(Cl)c2)c2cc3occc3n12 (configuration not stated) | inconclusive [inhibitor, single point] | –
CCN(CC)S(=O)(=O)c1ccc(NC(=O)CN(c2cccc(C)c2)S(C)(=O)=O)cc1 | inconclusive [inhibitor, single point] | –
N#C/C(=C(/O)COC(=O)COc1ccc(Cl)cc1)c1nc2ccccc2[nH]1 | active: 4.61 µM | –

SMILES | Potency | activity change, negative = growth inhibition
O=C(NCc1ccccc1)C1c2ccccc2OCC(=O)N1Cc1ccc2c(c1)OCO2 (configuration not stated) | inconclusive [inhibitor, single point] | –
Cc1ccc(C(C(=O)NCCc2ccccc2)N(C(=O)c2csnn2)C2CC2)o1 (configuration not stated) | inconclusive [inhibitor, single point] | –
O=C(N/N=C/c1cc2cc3c(cc2nc1Cl)OCCO3)c1ccccc1O | inconclusive [inhibitor, single point] | –
Cc1ccc(SCCSc2nc(N)cc(=O)[nH]2)cc1 | inconclusive [inhibitor, single point] | –
COc1ccc(CCNC(=O)CCNS(=O)(=O)c2ccc3c(c2)CCN3C(C)=O)cc1OC | inconclusive [inhibitor, partial curve] | –
O=c1c2c(-c3ccc(Cl)cc3)csc2nc2n1CCC2 | – | inactive: -19.8%
CNC(C)C#Cc1ccc2oc3cccc(OC)c3c(=O)c2c1 (configuration not stated) | inconclusive [inhibitor, single point] | –
Cc1ccccc1N1CCN(C2CCCN(C(=O)CCc3c(C)noc3C)C2)CC1 (configuration not stated) | active: 23.1 µM | –
COc1ccc(CN2C(=O)COc3ccccc3C2c2nc3ccccc3[nH]2)cc1 (configuration not stated) | – | inactive: -6.16%
CCCCn1c(SCC(=O)c2ccc3c(c2)NC(=O)CO3)nc2cc(S(N)(=O)=O)ccc21 | inconclusive [inhibitor, single point] | –
CCOC(=O)C1CCCN(C(=O)COc2ccc(S(=O)(=O)N3CCOCC3)cc2)C1 (configuration not stated) | – | inactive: 1.28%
CCOC(=O)C1CCN(S(=O)(=O)c2nc3nc(C)cc(C)n3n2)CC1 | inconclusive [inhibitor, single point] | –
Nc1ccc(C(=O)NC2CCSc3ccccc32)cc1[N+](=O)[O-] (configuration not stated) | inconclusive [inhibitor, single point] | –
COc1ccc(N2CCN(Cc3nc4c(c(=O)n(C)c(=O)n4C)n3Cc3ccccc3C)CC2)cc1 | active: 16.4 µM | –
CCOC(=O)c1c(NC(=O)CCC(=O)NCc2ccco2)sc2c1CCCC2 | inconclusive [inhibitor, single point] | –
CC(=O)Nc1nc(-c2ccc3c(c2)CCN3C(=O)C2CC2)c(C)s1 | active: 1.3 µM | –
Cc1cc(=O)[nH]c(SCC(=O)N2CCN(C(c3ccccc3)c3ccccc3)CC2)n1 | inconclusive [inhibitor, partial curve, poor fit] | –
Cc1cc(/C=C\c2nc(O)c([N+](=O)[O-])c(=O)[nH]2)c(C)n1-c1ccccc1 | – | inactive: -0.713%
CC(C(=O)N1CCCC1)N1CCN(S(=O)(=O)c2ccccc2)CC1 (configuration not stated) | – | inactive: -2.44%
CCNC(=S)N/N=C/c1cccc(OCc2c(F)cccc2Cl)c1 | active: 16.4 µM | –
CC(C)(C)C(=O)NC(=S)Nc1ccccc1N1CCCC1 | – | inactive: -18.4%
C/C(=N\NC(=O)C1=NNC(=O)C1C)c1cccs1 (configuration not stated) | – | inconclusive: -34.3% [inhibitor]
CC(=O)N/C(=N\c1nc(C)cc(C)n1)Nc1ccc2ccccc2c1 | inconclusive [inhibitor, partial curve] | –
CCOc1ccc(C(=O)Cc2ccccc2)cc1 | – | inactive: -20.4%
